This assay has as its target nucleosome core particle: human histone octamer (H2A, H2B, H3.1, H4) wrapped by DNA (human, UniProt P04908; P06899; P68431; P62805). Kind of assay: FRET; NCP SHL+5.8; competition with His-MYC-MAX (625 nM).

IC50 data for 1 molecule are collected here from article PMC10338342 (2023).

B1: MYC-MAX bHLH LZ heterodimer (complex)
chain 1: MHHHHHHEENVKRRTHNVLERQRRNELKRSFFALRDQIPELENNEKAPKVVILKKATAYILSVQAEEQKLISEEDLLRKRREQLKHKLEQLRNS
chain 2: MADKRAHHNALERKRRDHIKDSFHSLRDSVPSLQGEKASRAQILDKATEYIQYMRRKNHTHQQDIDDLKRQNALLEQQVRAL
For orientation: IC50 means the point on the concentration scale where inhibition reaches its midpoint. A high value points to lower potency. For the molecule B1, the half-inhibitory concentration (IC50) is 5.19 µM.
